Data reported in the supplement of paper PMC12632987.
Whole data set: some 2,300 sequences, median “median log2 fold change of GCK-ALFA target abundance (FLAG IP / Myc IP barcode read proportion)” near 0.095, cut for the lowest 2% near -0.47. The list shows a part of the results.

B1: LC3A_28_677 (protein)
chain: SMLKENLEAALKEAKEAAKKGEPTVIEIYVPGNATEEEIEELIKKLEEIAEILKDVEGSAIIIHISKDLKQEHKDKIIDKAEEINEKYPNVTVIIALEEK
B2: LC3A_127_189 (protein)
chain: EIEKLSEELIKTLEELSKLLSSPDFDLEEAKKLAKEALKLAEELEKLDPRFKPVVEDAKQLLKIIEEMATASPAEQEELREHALMLVEGMIIEVESLLLK
B3: LC3A_3_1523 (protein)
chain: MEEIEKRILELLKEMGADEETLAKAKEALKLLKERGYEEALKTFLEELEELKDAPPEVIADFVEDVLELLKTEDLSEEELKEKIKEIARIAKSESEIEEL
B4: LC3A_28_1225 (protein)
chain: AAVDAEIAAARAAMAAAAAAGEEATITVKITGKTTLADVKRLMEALRAIVAEHAHLPRISIIIDLSGKVTQEQIDAAAEGGERIEKEFPNVTVILALDEN
B5: LC3A_3_1553 (protein)
chain: MEELKKKLLEELKKAGASEEVLKAAEEAFEALIKRGYEEAAKTLAEEVKKMLDLPDEILLDFLKDVLELVKTEDLNEEETIKKIKELATIAKNESEIIEL
B6: LC3A_free_39_2271 (protein)
chain: SEEEREEIVRGLEELLARAPEVSEEVRERLLEIAREDPEVGRVIRDYLARALEEGRDVAALAERVVATYEELRAAGKSREEIEEEVRLEAAELVNLEPLD
B7: LC3A_3_1822 (protein)
chain: MDEALAATLAELRAAGASEATLAAVRRTFAALRAKGYDEAARTFAELMREMRHLPSELLLEFAEDVLELVESRDLSEEELTAEIRRLARLYENEGEIIEL
B8: LC3A_28_635 (protein)
chain: SAIDEELAALRAAAEAAAAAGEEAVLTLKVGGDTDEEDVEKIIATLEEVAAITAGLKSTSIIIDIDGKVKQEHIDKLMDAGEEIEKKYPNVTVIFALDEE
B9: LC3A_28_1190 (protein)
chain: SALEEQLKKALEEAKEAAAKGEPAVITIEVPGDANQEDIEKVIKAMEEIAEILKDIPGSAIIVDLDGGVKQEHEDKIAEKAEEIEKKYPNVTVILALEER
B10: LC3A_28_892 (protein)
chain: SKEIEKAKKALEEAKKALAAGNTEPLVLEVDLPSTEEDVEKFLELLEEIAKVGSKKPGVSIVIDVDESVSQENIDKVIDKAEELEEKYPNVTIIIALPEN
B11: LC3A_28_1213 (protein)
chain: SPAEEAIKKAEEQFEEAIKSGEPKAIVVKITKEITKEEAEKIMKAIEEQVEKAKDIKGLAIVIDVEKGVSQEVIDLIAKKAEEIEKKYPNVTVIIALEEE
B12: LC3A_28_1273 (protein)
chain: SNIEEEIEKAKEEAKKAVEEKKPQVITIKIDGNATQEDIEKVIEAMEEIAELLKDIPNQAIVIDVDKGVKQENIDKLIDAAEEIEKKYPNVTVIIALDED
B13: LC3A_132_320 (protein)
chain: MEEKARRIREEILRLIEEAEENIDDLEKVEELVEEIRELARRAEEELTPEQVAEIFEEAAEKADEVSLKADEEGKEDVALLMDGLSVELAALSIRAEEKI
B14: LC3A_28_1042 (protein)
chain: NALEKDAKAAIAEAEKQLEKGEEAVVTLKVPKIDKETAEKIVRETLEELIKLSKKYGNKKVHVVIDFDGDQETLDAIIDVAEEAEKADPNLTVIIAYDPE
B15: LC3A_28_684 (protein)
chain: SKTEENLEKALKEAEEALKKGEPTVVTIKVYGDVTEEELEKILEALEKIAEILNKIPGSAIIIDIDKDVKEEFKDKIIDKAEELEKKYPNVTIIIALEER
B16: LC3A_28_1077 (protein)
chain: SPIEEQVEAALAELREAGARGEEAVLTITVTENATQEDIETVIAGLKEIAELAKTSGKVSVIINLDGNIPQEFIDKLADAAEEVEAANPNVTVIIALPDE
B17: LC3A_28_714 (protein)
chain: SPLEESIKKALEEAKEAAKKGEEAVIEIKVEGEITEEETEKVQKAIEEIAEITKDLKSTTIIVDVDGKVPQEHINKILDKGEEVEKKYPNVTVIFALDEN
B18: LC3A_3_1879 (protein)
chain: MEEEIEETIEELKKAGKSEETIEKFREAMELLKERGWEEALKTLIEEVRKLIDAPNEIVLDFLEEVLETIKTEDLSEEELIERIKELARLARNESEIIEL
B19: LC3A_3_1463 (protein)
chain: AEELIKEAREILEAQGWSPETIAAAEALLKALAAKGYEEAMKTVVELLKEAKGVPSDILLATFEDLLAIVETEDLTEEEVIARIKEEFAAAKAEAEIEEL
B20: LC3A_free_8_2542 (protein)
chain: TSEEAVRRVTELLDEAEEEITKKAKELGVDRLDILDLELLLGELKIEVIEAVDKSIEEIREIVEEGLAEIIAKAAEISPELAKLAEEARDEILEELEKLE
B21: LC3A_free_8_2514 (protein)
chain: SSKEFAKAAVKILDELEEKIVKLLKEKGKSRLDILEAELLIGSIKAEVISNSDKSPEEQLKIIEEGLKELVEALKELKEEVKKLVEEALKKIKEAKKKLE
B22: LC3A_17_550 (protein)
chain: KEEIKEELEKLLKELEALVKELEKYDPEAAKKLEEKLKKAKELLKKGKLEEAAKTLAEAADELANVWDSLEPKYGNKASVLSMEASGLELEAIGLLLKLE
B23: LC3A_59_2014 (protein)
chain: MEEVRKWVLEILKKFDNPEEFYEAVKKAVEELRKKYSDEELLKLVEKEAERLIKEGEDPKKMKAIVEAFKAALEIEDEEERKEEIRLILLESEIEEIDEE
B24: LC3A_3_1499 (protein)
chain: MEELLEELREVLEELGASEEQIEQALEAAKRILEKGLEETVETLIELFRENRDLSPEKILTTILITEDEVIEKNLDEESAIEYTKKILEDVAEIEEIEEE
B25: LC3A_28_730 (protein)
chain: SPLEESLEKALEEAKKAAAEGKQVLIEITVPGDATEEDVEKLIEALEEIAEILSSLENQSILINVEGGVKQEHIDKIADKAEEIEKKYPNVTVIIALDED
B26: LC3A_free_39_2217 (protein)
chain: SMEEIEKLIKEIAEEGGIDYEYVKKKIEEIKEVAGLSDEQILELVKAILEAVKAGADAKEILERILKLAKELKEEGKSPEEIAKELLEEIEDFRNLIPLD
B27: LC3A_3_1829 (protein)
chain: LDEREARLLAALRAAGHSEETIAAVRETLAALRAKGYYEAAETFIELLEENLDLPSELLLELAEEVKELVETKDLSEEELTEEIRKLARLFRNEAEIEEL
B28: LC3A_3_1817 (protein)
chain: LEERVERALELLREAGASEETLKAFREAAEALKERGYEEALKTLIELAERLLDLPSELLLELFEEVLELIKTSDDDEETIKEKIKEIASTIENESEIIEL
B29: LC3A_147_479 (protein)
chain: AVVDIDVLVKNEETAEELIKMFEEKKEELEAKGIKVELEIKKEKLDENTWYVEARITIEAETEEEEKAAAQEVVDRFDEFEEKNKDEVLASIISVEFVEK

The binders below were run against MAP1LC3A, Q9H492 (assay: median log2 fold change of GCK-ALFA target abundance (FLAG IP / Myc IP barcode read proportion) (log2 ratio); each designed protein is fused to an ALFA-tag nanobody in HEK293 cells to bring the named protein to FLAG-tagged glucokinase (GCK); Myc marks an untargeted standard; higher = target protein stabilised (more abundant)). Conditions: target protein: 3xFLAG-MCP-GCK-ALFA reporter; HEK293 landing pad (RPLP).
Protocol: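 LABEL-seq trans screen in HEK293 landing-pad cells. Each de novo designed 100-aa effector handle, binding the indicated effector (E3 ligase, DUB or autophagy protein), is fused to a constant NbALFA target handle and induced with 2 ug/mL doxycycline. A FLAG-MCP-GCK-ALFA target and a Myc-MCP standard reporter were transfected, and after 48 h circRNA barcodes were recovered by anti-FLAG and anti-Myc IP and sequenced. The value is the median across barcodes (at least 3 per design) of log2(FLAG/Myc read-proportion ratio), with the two transfection replicates pooled. Negative values mean degradation and positive values mean stabilisation of the target.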
In the case of B1, the “median log2 fold change” value is reported as 0.274.
With B2 the “median log2 fold change” value was 0.153.
In the case of B3, the “median log2 fold change” value is reported as 0.315.
For B4, the “median log2 fold change” value was 0.191.
B5 was tested, and the “median log2 fold change” value was 0.149.
In the case of B6, the “median log2 fold change” value is reported as 0.327.
With B7 the “median log2 fold change” value was 0.097.
For B8, the “median log2 fold change” value was -0.119.
B9 was tested, and the “median log2 fold change” value was 0.042.
In the case of B10, the “median log2 fold change” value is reported as -0.352.
B11 was tested, and the “median log2 fold change” value was 0.284.
In the case of B12, the “median log2 fold change” value is reported as -0.163.
In the case of B13, the “median log2 fold change” value is reported as 0.104.
For B14, the “median log2 fold change” value was -0.0746.
For B15, the “median log2 fold change” value was 0.0124.
For B16, the “median log2 fold change” value was 0.0615.
With B17 the “median log2 fold change” value was 0.219.
In the case of B18, the “median log2 fold change” value is reported as 0.0991.
B19 was tested, and the “median log2 fold change” value was 0.2.
In the case of B20, the “median log2 fold change” value is reported as 0.036.
In the case of B21, the “median log2 fold change” value is reported as 0.302.
In the case of B22, the “median log2 fold change” value is reported as -0.0224.
B23 was tested, and the “median log2 fold change” value was 0.186.
For B24, the “median log2 fold change” value was 0.245.
With B25 the “median log2 fold change” value was 0.213.
For B26, the “median log2 fold change” value was -0.012.
With B27 the “median log2 fold change” value was 0.354.
With B28 the “median log2 fold change” value was 0.312.
In the case of B29, the “median log2 fold change” value is reported as 0.117.
